From patent US20220389066A1, “POLYPEPTIDES” (Affibody AB, priority 2019, published 2022)

How the values were obtained:
HMGB1(disulfide) = target: T1, HMGB1(disulfide) (Rattus norvegicus, UniProt P63159); experiment: Attana A200 biosensor binding analysis, HMGB1(disulfide); conditions: relevant kd (the most represented in %); non-reducing; captured on HSA; 1:1 or 1:2 model
T1 construct: purchased HMGBiotech Srl, Milano, Italy
T1 sequence (P63159 1-215): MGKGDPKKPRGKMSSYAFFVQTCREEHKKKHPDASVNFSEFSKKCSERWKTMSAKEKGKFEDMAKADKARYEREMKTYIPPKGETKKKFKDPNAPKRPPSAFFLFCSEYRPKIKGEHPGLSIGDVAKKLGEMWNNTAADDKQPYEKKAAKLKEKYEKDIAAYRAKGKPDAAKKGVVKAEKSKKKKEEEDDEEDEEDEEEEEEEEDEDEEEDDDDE
Protocol: Binding analysis: The Attana A200® biosensor was used to characterize interactions between the dimeric polypeptides (SEQ ID NO:38-48) and HMGB1(red) under reducing conditions and/or HMGB1(disulfide) under non-reducing conditions. The monomeric ZA3812 (SEQ ID NO:35) was included for comparison. The experiment was performed as a capture assay, in which HSA was immobilized on Attana's sensor chip Low-NonSpecific-Binding (LNB). Immobilization was performed using amine coupling. The instrument has two sensor surfaces and HSA was immobilized on both surfaces. Around 110 Hz of HSA was stably immobilized on the surfaces.
In the kinetic experiment, HBS-EP+/−2 mM DTT was used as running buffer and the flow rate was 25 μl/min at 22° C. In each cycle, one polypeptide was tested against one concentration of HMGB1. […] The analyte HMGB1(reduced) was diluted in HBS-EP+2 mM DTT within a concentration range of 1.33 to 21.4 μg/ml, and the analyte HMGB1(disulfide) was diluted in HBS-EP buffer within a concentration range of 0.62 to 10 μg/ml. Both analytes were subsequently injected for 84 s over both channel A and B, where channel B was used as a blank surface for curve subtraction. Buffer injections were also made for surface subtractions. After dissociation, the surfaces were regenerated with a 30 s injection of 100 mM HCl followed by a 30 s injection of 20 mM NaOH. Data was collected by Attester Software and subsequently processed in the Evaluation Software. To calculate the kinetic parameters (ka and kd) and affinity constant (KD), the experimental data were fitted using a 1:1 or a 1:2 binding model.

HMGB3 = target: T2, HMGB3 (Homo sapiens, UniProt O15347); experiment: SPR binding specificity study, HMGB3; conditions: analyte HMGB3; captured on HSA
T2 construct: purchased Biorbyt orb180288
T2 sequence (O15347 1-200): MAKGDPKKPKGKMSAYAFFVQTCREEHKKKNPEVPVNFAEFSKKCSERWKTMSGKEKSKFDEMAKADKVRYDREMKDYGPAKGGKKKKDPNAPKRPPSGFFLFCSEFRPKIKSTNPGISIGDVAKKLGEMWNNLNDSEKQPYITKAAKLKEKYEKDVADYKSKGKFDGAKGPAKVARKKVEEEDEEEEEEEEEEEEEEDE
Protocol: (§1) HSA (Albucult®, Novozyme) was diluted to 10 μg/ml in acetate, pH 4.0, and immobilized onto a CM5 sensor chip using a Biacore 2000 instrument. Immobilization was performed by amine chemistry, using amine coupling kit, according to the manufacturer's instructions. The first surface of each chip was activated and deactivated for use as a reference cell (blank surface) during analyte injections. HBS-EP was used as running buffer, supplemented with 1.5 mM DTT when analyzing the binding to HMGB1(red). ZZA4263 was injected at a concentration of 100 nM for 4 minutes over the HSA and the reference sensor chip surfaces at a constant flow rate of 30 μl/min. This was followed by 4 minutes' injection of 0, 8.3, 25, 75, 225 and 675 nM of HMGB1(red), HMGB1(disulfide), HMGB2 (Biorbyt, cat. no. orb180287), HMGB3 (Biorbyt, cat. no. orb180288), SP100 (Biorbyt, cat. no. orb169341), TNF (R&D Systems, cat. no. 210-TA), IL-6 (R&D Systems, cat. no. 206-IL) and IL-1β (R&D Systems, cat. no. 201-LB/CF), respectively. The proteins were allowed to dissociate for 20 minutes before the chip surfaces were regenerated by two 10 second pulses using 10 mM HCl. The reference surface and the buffer sample were subtracted from all curves. The buffer sample was subtracted to adjust for the dissociation of ZZA4263 from HSA. […]

TNF = target: T3, TNF (Homo sapiens, UniProt P01375); experiment: SPR binding specificity study, TNF; conditions: up to 675 nM analyte
T3 construct: purchased R&D Systems 210-TA
T3 sequence (P01375 77-233 limits assumed): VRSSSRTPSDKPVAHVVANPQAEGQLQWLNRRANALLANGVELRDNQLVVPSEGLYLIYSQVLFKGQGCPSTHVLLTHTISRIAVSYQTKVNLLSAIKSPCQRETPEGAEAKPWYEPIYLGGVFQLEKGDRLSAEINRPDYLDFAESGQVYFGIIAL
Protocol: as §1

PK study in rat = format: in vivo, Sprague Dawley (SD) rats; conditions: i.v., 1.6 mg/kg
Protocol: PK study in rat: Six female Sprague Dawley (SD) rats were divided into two groups for crosswise sampling. ZZA4263 was administered as a bolus injection through tail vein at 1.6 mg/kg (83 nmol/kg) at a slow and steady rate. The dosing volume administered was 1 ml/kg. Serum samples (0.2-0.3 ml) were collected from tail vein of each rat at time points 0 (predose), 30 min, 3 h, 24 h, 120 h, 216 h, 336 h and 456 h for group 1 and at time points 0 (predose), 5 min, 1 h, 8 h, 72 h, 168 h, 264 h, 408 h and 504 h for group 2. To prepare sera, the blood samples were left at RT for at least 30 min before centrifugation at 2000×g for 5 min. Sera were extracted and transferred into pre-labelled test tubes and stored at −20° C.
Quantification by ELISA: 96-well half area plates were coated with mouse anti-Z monoclonal antibody (2 μg/ml) in PBS (50 μl/well) and incubated overnight at 4° C. Plates were washed in PBST and blocked with PBSC for 1.5 h. ZZA4263 standard and serum samples were added to the plates (50 μl/well) and incubated for 1.5 h at RT. The ZZA4263 standard was diluted at 10 different concentrations between 1.3-50 μM in PBSC+1% mouse or rat serum pool. Serum samples were diluted 100× (minimal required dilution) in PBSC and titrated in 1:2 steps in PBSC+1% mouse or rat serum pool. […] The absorbance at 450 nm was measured in a 96-well plate reader (Victor3). […]

B1: ZZA4263: heterodimer ZH27/ZH32, format Z(boxB)-L2-Z(boxA)-ABD (protein)
chain: AEAKYAKEAWLAEQEIWQLPNLTEAQFQAFILKLIDDPSQSSELLSEAKKLNDSQAPKGAPGGGGSTSAEAKYAKEDWDAFWEIIWLPNLTDAQQRAFIYKLEDDPSQSSELLSEAKKLNDSQAPKASGSLAEAKEAANAELDSYGVSDFYKRLIDKAKTVEGVEALKDAILAALP
modifications: Engineered HMGB1 binding polypeptide
notes: heterodimer ZH27/ZH32, format Z(boxB)-L2-Z(boxA)-ABD
HMGB1(disulfide)
  kd HMGB1 (disulfide): 0.00095 s⁻¹
HMGB3
  ka: 20000 M⁻¹ s⁻¹
  kd: 0.0013 s⁻¹
TNF
  binding to TNF: No significant binding
PK study in rat
  estimated t½: 25 to 36 h
